# Source: PubChem BioAssay AID624170 (National Center for Advancing Translational Sciences (NCATS), 2012)
# In all, about 410,000 compounds went through this assay and about 850 (0.21%) were called active. The shares of active, inactive and inconclusive entries below differ from those in the screen. Calls come from the whole dose curve; as a rule, active = well fitted inhibition curve with a large enough effect; inconclusive = small, poorly fitted or top-dose-only effect, or another doubt; inactive = no such curve, though single readings can be large or run the other way. No potency is given beside an inconclusive call; the fits are too rough.
# Target: Glutaminase kidney isoform, mitochondrial (Homo sapiens) (UniProt O94925)
# UniProt O94925, sequence (O94925 whole entry, looked up, canonical isoform): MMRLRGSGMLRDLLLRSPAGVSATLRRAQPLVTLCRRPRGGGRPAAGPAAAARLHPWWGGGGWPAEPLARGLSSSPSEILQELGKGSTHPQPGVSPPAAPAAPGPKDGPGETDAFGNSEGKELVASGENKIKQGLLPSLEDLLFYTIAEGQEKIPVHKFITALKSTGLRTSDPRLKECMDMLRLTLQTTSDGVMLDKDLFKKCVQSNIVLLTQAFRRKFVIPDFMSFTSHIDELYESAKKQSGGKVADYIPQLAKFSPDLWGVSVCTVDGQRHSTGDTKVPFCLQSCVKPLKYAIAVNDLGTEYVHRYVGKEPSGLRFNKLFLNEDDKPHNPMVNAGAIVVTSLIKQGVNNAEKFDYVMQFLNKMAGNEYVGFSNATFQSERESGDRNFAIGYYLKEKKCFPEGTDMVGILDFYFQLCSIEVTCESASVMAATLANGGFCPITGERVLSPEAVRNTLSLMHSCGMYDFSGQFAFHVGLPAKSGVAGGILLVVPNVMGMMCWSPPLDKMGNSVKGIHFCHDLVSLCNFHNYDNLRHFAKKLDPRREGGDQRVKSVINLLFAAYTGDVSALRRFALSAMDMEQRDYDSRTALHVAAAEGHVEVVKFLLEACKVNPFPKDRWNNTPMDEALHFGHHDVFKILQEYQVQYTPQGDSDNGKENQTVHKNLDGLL
# Assay: qHTS for Inhibitors of Glutaminase (GLS)
# Conditions: GLS enzymatic activity, qHTS titration; series mostly up to 45.5 µM
# Method in brief: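 Assay buffer: 45 mM KH2PO4 pH 8.2, 0.02% Tween-20. hKGA acts on L-glutamine (1 mM solution added); product glutamate is reported by an oxidase/peroxidase Amplex Red coupling, with fluorescence taken at baseline and 30 min.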
# Potency is the fitted concentration of half-maximal effect; tags give direction and shape of the fitted curve.
row,Structure (SMILES),Potency
1,O=C(CCCn1c(=O)c2cccn2c2cccnc21)NCCc1ccc(Cl)cc1,inactive
2,COC(=O)c1nn(-c2ccccc2)c(Cl)c1/C=N/OCc1c(Cl)cccc1Cl,inactive
3,COc1cccc(/C=C2/Sc3ccc(C(=O)NCCN4CCCC4)cc3NC2=O)c1,inactive
4,O=C1/C(=C/c2ccccc2)CCc2ccc(Cl)nc21,inactive
5,Cc1ccc2cc3cc(C(=O)N4CCN(C(=O)c5ccco5)CC4)sc3nc2c1,"inconclusive [inhibitor, single point]"
6,CCOC(=O)c1[nH]c2ccccc2c1NC(=O)NC(C)C,"inconclusive [inhibitor, partial curve]"
7,Clc1ccc(-c2csc3ncnc(NCCN4CCOCC4)c23)cc1,inactive
8,O=C(c1cccs1)N1CCN(Cc2cccnc2)CC1,"inconclusive [inhibitor, single point]"
9,O=C(Nc1cc2c3c(c1)C1CCCC1CN3CC1CCCC21)c1ccccc1 (stereo unspecified),"inconclusive [inhibitor, single point]"
10,O=C(NCCCN1CCN(CCCNC(=O)c2ccccc2F)CC1)c1ccccc1F,inactive
11,CC(C)CCN1NC2(CCC(C)CC2)NC1=S (stereo unspecified),"inconclusive [inhibitor, partial curve]"
12,COc1cc(/C=N/Nc2ccccc2[N+](=O)[O-])cc(OC)c1O,"inconclusive [inhibitor, full curve]"
13,Cc1ccc(C(CC(=O)Nc2ccc(C)cc2C)N2Cc3ccccc3C2=O)cc1 (stereo unspecified),inactive
14,COc1ccc(C2Nc3ccccc3NC3=C2C(=O)CC(C)(C)C3)cc1O (stereo unspecified),active: 12.6 µM
15,C=CCN(CC=C)CC(O)CN(c1cc([N+](=O)[O-])ccc1OC)S(=O)(=O)c1ccccc1 (stereo unspecified),inactive
16,CC(C)(C)n1nnnc1C(c1ccncc1)N1CCN(c2ccc(O)cc2)CC1 (stereo unspecified),"inconclusive [inhibitor, single point]"
17,COCCNc1nc2sc3c(c2c(=O)n1Cc1ccco1)CCCCC3,"inconclusive [inhibitor, single point]"
18,COc1ccccc1OC(C)C(=O)Nc1ccc2c(c1)OCCO2 (stereo unspecified),"inconclusive [inhibitor, single point]"
19,CC(C)N1CCc2c(sc(N)c2C#N)C1,active: 14.1 µM
20,COc1ccc2c(c1)c(=O)c(C(=O)c1ccccc1)cn2Cc1ccc(C)cc1,inactive
21,CCc1cccc(C)c1Nc1c(-c2ccc(N(C)C)cc2)nc2ncccn12,"inconclusive [inhibitor, single point]"
22,NC(=O)c1c(NC(=S)Nc2ccc(F)cc2)sc2c1CCCC2,"inconclusive [inhibitor, single point]"
23,CCOc1ccc(NC(=O)C(=O)NCCN2CCN(S(=O)(=O)c3ccccc3)CC2)cc1,"inconclusive [inhibitor, single point]"
24,O=[N+]([O-])c1cccc(C=NNc2ccccc2)c1,"inconclusive [inhibitor, single point]"

row,Structure (SMILES),Potency
1,COc1ccccc1Cn1c(=S)[nH]c2cc(C(=O)N3CCN(C)CC3)ccc2c1=O,active: 12.6 µM
2,COc1ccc(N=Cc2cc(Cc3ccccc3Cl)cc([N+](=O)[O-])c2O)cc1OC,"inconclusive [inhibitor, single point]"
3,CC(C)CC(=O)Nc1ncc([N+](=O)[O-])s1,"inconclusive [inhibitor, single point]"
4,Cc1ccc(NC(=O)c2cccnc2)cc1C,"inconclusive [inhibitor, single point]"
5,CC(=Cc1ccccc1)C(=O)c1ccccc1,inactive
6,O=C(O)C1CCCCC1C(=O)Nc1ccccn1 (stereo unspecified),"inconclusive [inhibitor, single point]"
7,CCN1C(=O)/C(=C\c2ccc(-c3ccc([N+](=O)[O-])cc3OC)o2)SC1=Nc1cccc(C(=O)O)c1,"inconclusive [inhibitor, single point]"
8,C=CCc1cccc(/C=N/c2ncccc2O)c1O,"inconclusive [inhibitor, partial curve, poor fit]"
9,O=C(Nc1ccccc1)Oc1ccccc1N1CCOCC1,"inconclusive [inhibitor, partial curve]"
10,O=C(N/N=C/c1cccs1)c1ccc2ccccc2c1,inactive
11,Nc1cc(=O)[nH]c(SCCSc2ccc(F)cc2)n1,"inconclusive [inhibitor, single point]"
12,CC(=C/c1ccccc1)/C=N/n1c(C)n[nH]c1=S,inactive
13,CC(=O)Oc1c(-c2ccco2)oc2ccccc2c1=O,"inconclusive [inhibitor, single point]"
14,CN(CC(=O)Nc1ccc(N2CCOCC2)cc1)CC(=O)Nc1ccc([N+](=O)[O-])cc1Br,inactive
15,O=C1NC(=S)NC1=Cc1ccco1,"inconclusive [inhibitor, single point]"
16,COc1cc(N=Nc2c(C)n(C)n(-c3ccccc3)c2=O)ccc1N,"inconclusive [inhibitor, partial curve]"
17,COc1ccc(/C(O)=C2/C(=O)C(=O)N(CCN3CCOCC3)C2c2cccnc2)cc1OC (stereo unspecified),inactive
18,COc1ccc2c(c1)-c1nc(NC(=O)c3cc(OC)c(OC)c(OC)c3)sc1CC2,inactive
19,CCc1cccc(C)c1NC(=O)COC(=O)CSCc1ccccc1,inactive
20,N#Cc1c(-c2ccc(Cl)cc2)c2c([nH]c1=S)CCCC2,"inconclusive [inhibitor, single point]"
21,Cc1c(C)c2c(OCC(=O)N[C@@H](Cc3ccccc3)C(=O)O)cc3c(c2oc1=O)CCC(C)(C)O3,"inconclusive [inhibitor, single point]"
22,CC(=O)N(CC(O)CN(C(C)=O)c1c(I)c(C(=O)NC[C@@H](O)CO)c(I)c(C(=O)NC[C@@H](O)CO)c1I)c1c(I)c(C(=O)NC[C@@H](O)CO)c(I)c(C(=O)NC[C@@H](O)CO)c1I,"inconclusive [inhibitor, single point]"
23,Cc1cccc(C(=O)NNS(=O)(=O)c2ccccc2)c1O,active: 6.31 µM
24,CC(=O)c1cccc(NC(=O)CCc2nnc3ccc(NCc4ccco4)nn23)c1,"inconclusive [inhibitor, single point]"

row,Structure (SMILES),Potency
1,CCCOc1ccc(C2NC(=S)NC(c3ccccc3)=C2C(=O)Nc2ccc(C)cc2)cc1OC (stereo unspecified),"inconclusive [inhibitor, partial curve, poor fit]"
2,O=C(NCc1ccccn1)C1CCN(S(=O)(=O)c2cnc[nH]2)CC1,"inconclusive [inhibitor, partial curve]"
3,CCCCOc1ccc(-c2c(C#N)c(N)[nH]c(=S)c2C#N)cc1,"inconclusive [inhibitor, single point]"
4,CC(C)(C)c1csc(NNC(=O)c2ccc(Br)cc2)n1,active: 5.01 µM
5,Cn1ccnc1C(O)c1cc(C(C)(C)C)c(O)c(C(C)(C)C)c1 (stereo unspecified),"inconclusive [inhibitor, partial curve, poor fit]"
6,CCOC(=O)c1sc(NC(=O)c2c(CC)noc2C)nc1C,inactive
7,C=CCOc1nc2c(c(=O)n(Cc3ccc(Cl)cc3)c(=O)n2C)n1C,"inconclusive [inhibitor, partial curve, poor fit]"
8,CC(C)(C)c1nnc(NC(=O)C2CC(=O)N(CCc3ccc(F)cc3)C2)s1 (stereo unspecified),inactive
9,COc1ccc(S(=O)(=O)N2CCN(c3cnccn3)CC2)cc1OC,"inconclusive [inhibitor, partial curve, poor fit]"
10,CSc1ccc(S(=O)(=O)N2CC(=O)Nc3ccccc32)cc1,inactive
11,CCOC(=O)c1cnc(SCC(=O)N2CCc3ccccc32)nc1N,"inconclusive [inhibitor, partial curve, poor fit]"
12,Cc1cc(C)cc(NC(=O)CSCc2nc3c(nnn3Cc3ccc(F)cc3)c(=O)[nH]2)c1,"inconclusive [inhibitor, single point]"
13,COCCn1c(Cc2ccccc2)nnc1SCc1nc2ccccc2c(=O)[nH]1,"inconclusive [inhibitor, single point]"
14,COc1ccc(NC(=S)N(CCCN2CCOCC2)Cc2cn(C)c3ccccc23)cc1OC,"inconclusive [inhibitor, partial curve, poor fit]"
15,O=C(NC(Cc1ccccc1)C(=O)O)/C(=C/c1ccccc1)NC(=O)c1ccco1 (stereo unspecified),"inconclusive [inhibitor, single point]"
16,COc1cccc(CNc2nccs2)c1O,"inconclusive [inhibitor, partial curve]"
17,O=C1OC(c2ccccc2)=NC12CC2c1ccc(Cl)cc1 (stereo unspecified),"inconclusive [inhibitor, partial curve, poor fit]"
18,CCOC(=O)C1CCN(S(=O)(=O)c2ccc(OCC)cc2)CC1,inactive
19,CCN(CC(=O)Nc1ccc(NC(C)=O)cc1)C(=O)CSCc1c(C)noc1C,inactive
20,CC(=O)c1cc(C(=O)Nc2ccc3ccccc3c2)c(C)o1,inactive
21,O=C(NCC1CCCO1)c1cc([N+](=O)[O-])ccc1Cl (stereo unspecified),"inconclusive [inhibitor, single point]"
22,COc1cc(/C=C/c2ccc3cccc([N+](=O)[O-])c3n2)ccc1OCC(=O)O,"inconclusive [inhibitor, single point]"
23,CCOc1ccc(NC(=S)N2CCN(C/C=C/c3ccccc3)CC2)cc1,"inconclusive [inhibitor, partial curve, poor fit]"
